From the supplement of paper PMC4604168 (melanoma cell lines)
This is one part of the list. Repeats are few or missing, and single values can be far off.

Experiments:
Assay in all cases: cell count relative to DMSO control; melanoma cells; higher = more viable cells
Conditions in all cases: library dose: standard library concentration; 72 h
SkMel28 = system: SkMel28
SkMel2 = system: SkMel2
SkMel30 = system: SkMel30
SkMel5 = system: SkMel5
UACC257 = system: UACC257
UACC62 = system: UACC62
WM115 = system: WM115
WM1716 = system: WM1716
WM3526 = system: WM3526
WM1745 = system: WM1745
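Further: cells treated in 1,536-well plates, then fixed and DAPI-stained, with nuclei counted from automated high-throughput microscope images.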

| Structure (SMILES) | cell count (SkMel28) | cell count (SkMel2) | cell count (SkMel30) | cell count (SkMel5) | cell count (UACC257) | cell count (UACC62) | cell count (WM115) | cell count (WM1716) | cell count (WM3526) | cell count (WM1745) |
| --- | --- | --- | --- | --- | --- | --- | --- | --- | --- | --- |
| O=C(O)[C@@H]1[O][Sb](=[O])([O][Sb]2(=[O])[O][C@H]([C@H](O)CO)[C@H](O)[C@H](C(=O)O)[O]2)[O][C@H]([C@H](O)CO)[C@@H]1O (some centres undefined) [stibogluconate] + COC(=O)c1sccc1S(=O)(=O)Nc1ccc(Nc2ccccc2)cc1OC [GSK0660] (first compound 10 µM, partner dose 5 µM) | 78.2% | 97.3% | 98.5% | 89.8% | 96.5% | 105% | 119% | 105% | 97.2% |  |
| O=C(O)c1ccc2c(c1)nc(Nc1cccc(Cl)c1)c1ccncc12 + O=C1NC(=O)/C(=C/c2ccc(-c3ccc(F)cc3O)o2)S1 [AS252424] (first compound 2 µM, partner dose 5 µM) | 72.8% | 65.7% | 67.7% | 57.5% | 76.2% | 80.8% | 104% | 96.5% | 55.9% |  |
| O=C(O)c1ccc2c(c1)nc(Nc1cccc(Cl)c1)c1ccncc12 + CCCCCCCCCCCC1=C(O)C(=O)C=C(O)C1=O [Embelin] (first compound 2 µM, partner dose 6 µM) | 70.1% | 75.1% | 81.7% | 83.1% | 84.5% | 71.8% | 108% | 75.4% | 74.7% |  |
| O=C(Nc1cc(C(F)(F)F)cc(C(F)(F)F)c1)c1cc(Cl)ccc1O + O=C(O)C(=O)Nc1sc2c(c1C(=O)O)CCNC2 [TCS401] (first compound 0.08 µM, partner dose 8.33333 µM) | 108% | 105% | 152% | 80.8% | 85.2% | 128% | 88.1% | 98.2% | 105% |  |
| O=C(O)[C@@H]1[O][Sb](=[O])([O][Sb]2(=[O])[O][C@H]([C@H](O)CO)[C@H](O)[C@H](C(=O)O)[O]2)[O][C@H]([C@H](O)CO)[C@@H]1O (some centres undefined) [stibogluconate] + O=C(Nc1ccccc1)c1cc([N+](=O)[O-])ccc1Cl [GW9662] (first compound 10 µM, partner dose 10 µM) | 78.7% | 105% | 93.2% | 109% | 98.8% | 86% | 82.4% | 92% | 96.7% |  |
| O=C(O)[C@@H]1[O][Sb](=[O])([O][Sb]2(=[O])[O][C@H]([C@H](O)CO)[C@H](O)[C@H](C(=O)O)[O]2)[O][C@H]([C@H](O)CO)[C@@H]1O (some centres undefined) [stibogluconate] + COc1cc2ncnc(Nc3ccc(Oc4ccccc4)cc3)c2cc1OC [SrcI1] (first compound 10 µM, partner dose 10 µM) | 113% | 103% | 91.8% | 60.4% | 85.5% | 46.3% | 72.1% | 66.7% | 60.8% |  |
| Cn1nnc2c(C(N)=O)ncn2c1=O [temozolomide] + COc1ccc(-c2ccc3c(N4CCOCC4)nc(N4C[C@@H](C)O[C@@H](C)C4)nc3n2)cc1CO [KU0063794] (first compound 10 µM, partner dose 0.1 µM) | 40.9% | 93.3% | 64.9% | 57.6% | 81.1% | 91.7% | 80.2% | 51.8% | 99% | 96.1% |
| O=C(Nc1cc(C(F)(F)F)cc(C(F)(F)F)c1)c1cc(Cl)ccc1O + C=CCn1c(=O)c2cnc(Nc3ccc(N4CCN(C)CC4)cc3)nc2n1-c1cccc(C(C)(C)O)n1 [MK1775] (first compound 0.08 µM, partner dose 0.1 µM) | 60.4% | 95.2% | 84.1% | 64.4% | 82.5% | 52.8% | 107% | 96.6% | 85.7% | 80% |
| Cc1cc(N2CCOCC2)cc2[nH]c(-c3c(NC[C@@H](O)c4cccc(Cl)c4)cc[nH]c3=O)nc12 + O=C(O)c1ccc(-c2c[nH]c3ncc(-c4ccccc4)cc23)cc1C1CCCC1 [GSK650394] (first compound 1 µM, partner dose 0.8 µM) | 63.5% | 73.5% | 76% | 59.3% | 76% | 97.5% | 117% | 93.6% | 65.1% | 46.6% |
| O=C(Nc1cc(C(F)(F)F)cc(C(F)(F)F)c1)c1cc(Cl)ccc1O + Cc1cc([N+](=O)[O-])ccc1NS(=O)(=O)c1cc(Cl)ccc1Cl [FH535] (first compound 0.08 µM, partner dose 5 µM) | 68% | 93.8% | 98.3% | 74% | 67.6% | 124% | 83.9% | 85.5% | 93% |  |
| O=C(Nc1cc(C(F)(F)F)cc(C(F)(F)F)c1)c1cc(Cl)ccc1O + CCN(CC)CCCCNc1ncc2cc(-c3cc(OC)cc(OC)c3)c(NC(=O)NC(C)(C)C)nc2n1 [PD173074] (first compound 0.08 µM, partner dose 0.5 µM) | 119% | 102% | 127% | 80.5% | 100% | 83.3% | 122% | 104% | 103% |  |
| O=C(Nc1cc(C(F)(F)F)cc(C(F)(F)F)c1)c1cc(Cl)ccc1O + O=C(/C=C/c1cccnc1)NCCCCC1CCN(C(=O)c2ccccc2)CC1 [FK866] (first compound 0.08 µM, partner dose 0.05 µM) | 92.3% | 13.5% | 104% | 84.3% | 96.2% | 79.1% | 81.2% | 70.4% | 108% | 106% |
| O=C(O)[C@@H]1[O][Sb](=[O])([O][Sb]2(=[O])[O][C@H]([C@H](O)CO)[C@H](O)[C@H](C(=O)O)[O]2)[O][C@H]([C@H](O)CO)[C@@H]1O (some centres undefined) [stibogluconate] + Oc1cc(-c2nc(-c3ccccc3)[nH]c2-c2ccncc2)ccc1Cl [L779450] (first compound 10 µM, partner dose 1 µM) | 40.5% | 24.7% | 75.8% | 73% | 90.2% | 48.5% | 47.9% | 64.8% | 45.2% |  |
| O=C(Nc1cc(C(F)(F)F)cc(C(F)(F)F)c1)c1cc(Cl)ccc1O + COC(=O)c1sccc1S(=O)(=O)Nc1ccc(Nc2ccccc2)cc1OC [GSK0660] (first compound 0.08 µM, partner dose 5 µM) | 88.3% | 97.6% | 109% | 78% | 81.9% | 102% | 101% | 112% | 99.2% |  |
| O=C(O)[C@@H]1[O][Sb](=[O])([O][Sb]2(=[O])[O][C@H]([C@H](O)CO)[C@H](O)[C@H](C(=O)O)[O]2)[O][C@H]([C@H](O)CO)[C@@H]1O (some centres undefined) [stibogluconate] + CCc1ccc(CCOc2ccc(CC3SC(=O)NC3=O)cc2)nc1 [pioglitazone] (first compound 10 µM, partner dose 10 µM) | 96.6% | 109% | 114% | 122% | 116% | 115% | 95.9% | 92.6% | 111% |  |
| O=C(Nc1cc(C(F)(F)F)cc(C(F)(F)F)c1)c1cc(Cl)ccc1O + CCCCCCCCCCCC1=C(O)C(=O)C=C(O)C1=O [Embelin] (first compound 0.08 µM, partner dose 6 µM) | 60.9% |  | 86.2% | 71.5% | 77.4% | 66.3% | 93.2% | 85.5% | 93.9% |  |
| O=C(Nc1cc(C(F)(F)F)cc(C(F)(F)F)c1)c1cc(Cl)ccc1O + CCc1ccc(CCOc2ccc(CC3SC(=O)NC3=O)cc2)nc1 [pioglitazone] (first compound 0.08 µM, partner dose 10 µM) | 88% | 92.4% | 108% | 72.7% | 97.2% | 116% | 88.5% | 105% | 114% |  |
| O=C(O)[C@@H]1[O][Sb](=[O])([O][Sb]2(=[O])[O][C@H]([C@H](O)CO)[C@H](O)[C@H](C(=O)O)[O]2)[O][C@H]([C@H](O)CO)[C@@H]1O (some centres undefined) [stibogluconate] + O=C(O)C(=O)Nc1sc2c(c1C(=O)O)CCNC2 [TCS401] (first compound 10 µM, partner dose 8.33333 µM) | 99.8% | 102% | 158% | 82.8% | 90.5% | 121% | 92.1% | 80.7% | 108% |  |
| O=C(Nc1cc(C(F)(F)F)cc(C(F)(F)F)c1)c1cc(Cl)ccc1O + Cn1cc(/C=C2\C(=O)Nc3cccnc32)c2ccccc21 [GW441756] (first compound 0.08 µM, partner dose 2 µM) | 122% | 110% | 117% | 84.5% | 91.4% | 89% | 104% | 93.3% | 123% |  |
| O=C(Nc1cc(C(F)(F)F)cc(C(F)(F)F)c1)c1cc(Cl)ccc1O + COc1ccc2c(c1)CCC1C2CCC2(C)C(NCCCCCCN3C(=O)C=CC3=O)CCC12 [U73122] (first compound 0.08 µM, partner dose 2 µM) | 92.8% | 122% | 98.5% | 109% | 81.8% | 96.4% | 96.6% | 122% | 129% |  |
| O=C(O)c1ccc2c(c1)nc(Nc1cccc(Cl)c1)c1ccncc12 + COc1ccc(COc2ccc(Cc3cnc(N)nc3N)cc2OC)cc1 [GW2580] (first compound 2 µM, partner dose 5 µM) | 50.9% | 74.6% | 75.5% | 83.2% | 93.6% | 69.5% | 93.6% | 88.5% | 79.6% |  |
| O=C(O)c1ccc2c(c1)nc(Nc1cccc(Cl)c1)c1ccncc12 + O=C(O)C(=O)Nc1sc2c(c1C(=O)O)CCNC2 [TCS401] (first compound 2 µM, partner dose 8.33333 µM) | 77.1% | 80.7% | 84.2% | 59.9% | 94.8% | 74.8% | 106% | 92.3% | 75.5% |  |
| O=C(Nc1cc(C(F)(F)F)cc(C(F)(F)F)c1)c1cc(Cl)ccc1O + Oc1nc(-c2ccc(C(F)(F)F)cc2)nc2c1CSCC2 [XAV939] (first compound 0.08 µM, partner dose 10 µM) | 67.3% | 89.4% | 117% | 63.6% | 85.6% | 73.2% | 90.3% | 61.2% | 94.4% |  |
| O=C(O)c1ccc2c(c1)nc(Nc1cccc(Cl)c1)c1ccncc12 + N#Cc1c(O)c2c(-c3ccc(-c4ccccc4O)cc3)csc2[nH]c1=O [A769662] (first compound 2 µM, partner dose 10 µM) | 95.3% | 96.1% | 79.8% | 97.9% | 110% | 92% | 88% | 111% | 85.7% |  |
